# Substitutions are numbered along the chain they refer to; changes in the protein carry UniProt numbers. Some of the results follow.
# T1: RBFOX1 RRM (Homo sapiens, UniProt Q9NWB1 109-208)
# T1 sequence: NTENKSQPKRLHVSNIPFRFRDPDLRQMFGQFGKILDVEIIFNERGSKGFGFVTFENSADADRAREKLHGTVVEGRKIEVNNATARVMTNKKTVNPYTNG
# B1: AACCCGC (DNA:RNA)
# RNA: GGGAGACCGGAAUUCAGAUUGUCCAACCCGCUUAAAUCCCGUCGUAGCCACCA
# DNA 1: CAATCTGAATTCCGGTCTCCC
# DNA 2: TGGTGGCTACGACGGGATT
# B2: UAGUGUG (DNA:RNA)
# RNA: B1 RNA with A25U, C27G, C28U, C29G, G30U, C31G
# DNA 1: CAATCTGAATTCCGGTCTCCC
# DNA 2: TGGTGGCTACGACGGGATT
# B3: UACGCAU (DNA:RNA)
# RNA: B1 RNA with A25U, C28G, G30A, C31U
# DNA 1: CAATCTGAATTCCGGTCTCCC
# DNA 2: TGGTGGCTACGACGGGATT
# B4: AACUUCG (DNA:RNA)
# RNA: B1 RNA with C28U, C29U, G30C, C31G
# DNA 1: CAATCTGAATTCCGGTCTCCC
# DNA 2: TGGTGGCTACGACGGGATT
# B5: UGUGGCG (DNA:RNA)
# RNA: GGGAGACCGGAAUUCAGAUUGUCCUGUGGCGUUAAAUCCCGUCGUAGCCACCA
# DNA 1: CAATCTGAATTCCGGTCTCCC
# DNA 2: TGGTGGCTACGACGGGATT
# B6: UGUGGAC (DNA:RNA)
# RNA: B5 RNA with C30A, G31C
# DNA 1: CAATCTGAATTCCGGTCTCCC
# DNA 2: TGGTGGCTACGACGGGATT
# B7: AAAGAUU (DNA:RNA)
# RNA: B1 RNA with C27A, C28G, C29A, G30U, C31U
# DNA 1: CAATCTGAATTCCGGTCTCCC
# DNA 2: TGGTGGCTACGACGGGATT
# B8: GGGUUCC (DNA:RNA)
# RNA: B5 RNA with U25G, U27G, G28U, G29U, G31C
# DNA 1: CAATCTGAATTCCGGTCTCCC
# DNA 2: TGGTGGCTACGACGGGATT
# B9: GAUCCGA (DNA:RNA)
# RNA: B1 RNA with A25G, C27U, C31A
# DNA 1: CAATCTGAATTCCGGTCTCCC
# DNA 2: TGGTGGCTACGACGGGATT
# B10: CAUCGGG (DNA:RNA)
# RNA: B1 RNA with A25C, C27U, C29G, C31G
# DNA 1: CAATCTGAATTCCGGTCTCCC
# DNA 2: TGGTGGCTACGACGGGATT
# B11: UGCAGCG (DNA:RNA)
# RNA: B5 RNA with U27C, G28A
# DNA 1: CAATCTGAATTCCGGTCTCCC
# DNA 2: TGGTGGCTACGACGGGATT
# B12: CAUUCGU (DNA:RNA)
# RNA: B1 RNA with A25C, C27U, C28U, C31U
# DNA 1: CAATCTGAATTCCGGTCTCCC
# DNA 2: TGGTGGCTACGACGGGATT
# B13: GAAUCUC (DNA:RNA)
# RNA: B1 RNA with A25G, C27A, C28U, G30U
# DNA 1: CAATCTGAATTCCGGTCTCCC
# DNA 2: TGGTGGCTACGACGGGATT
# B14: GUCGGGG (DNA:RNA)
# RNA: B5 RNA with U25G, G26U, U27C, C30G
# DNA 1: CAATCTGAATTCCGGTCTCCC
# DNA 2: TGGTGGCTACGACGGGATT
# B15: CAGUUCC (DNA:RNA)
# RNA: B1 RNA with A25C, C27G, C28U, C29U, G30C
# DNA 1: CAATCTGAATTCCGGTCTCCC
# DNA 2: TGGTGGCTACGACGGGATT
# B16: GCUUACC (DNA:RNA)
# RNA: B5 RNA with U25G, G26C, G28U, G29A, G31C
# DNA 1: CAATCTGAATTCCGGTCTCCC
# DNA 2: TGGTGGCTACGACGGGATT
# B17: GCGUCCC (DNA:RNA)
# RNA: B1 RNA with A25G, A26C, C27G, C28U, G30C
# DNA 1: CAATCTGAATTCCGGTCTCCC
# DNA 2: TGGTGGCTACGACGGGATT
# B18: UUUACCU (DNA:RNA)
# RNA: B5 RNA with G26U, G28A, G29C, G31U
# DNA 1: CAATCTGAATTCCGGTCTCCC
# DNA 2: TGGTGGCTACGACGGGATT
# B19: AAUUGGA (DNA:RNA)
# RNA: B1 RNA with C27U, C28U, C29G, C31A
# DNA 1: CAATCTGAATTCCGGTCTCCC
# DNA 2: TGGTGGCTACGACGGGATT
# B20: UUUUAAC (DNA:RNA)
# RNA: B5 RNA with G26U, G28U, G29A, C30A, G31C
# DNA 1: CAATCTGAATTCCGGTCTCCC
# DNA 2: TGGTGGCTACGACGGGATT
# Target: T1, RBFOX1 RRM
# Experiment: EMSA; HiTS-Eq, 1 nM pool, 10 min; buffer printed only for the single-RNA assays: 10 mM Tris pH 7.5, 150 mM NaCl, 3.4 mM EDTA, 0.001% NP-40, 30 C
# Settings: tags: His6 N-terminal (pET28a); label: 5' 32P
# Method in brief: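 Relative association constants, normalised to the cognate motif, were derived by comparing read counts of each RNA species with those of the control reaction. The RNA sequenced was the free fraction, separated by 8% native PAGE after a 10 min equilibration in 50 µL of 1 nM 5′-radiolabelled RNA (7 randomized nucleotides) with increasing concentrations of purified wild-type or mutant RbFox RRM.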
row,Binder,binding signal
1,B1,0.00101 KA relative to UGCAUGU
2,B2,0.0215 KA relative to UGCAUGU
3,B3,0.0127 KA relative to UGCAUGU
4,B4,0.0158 KA relative to UGCAUGU
5,B5,0.0248 KA relative to UGCAUGU
6,B6,0.00524 KA relative to UGCAUGU
7,B7,0.00371 KA relative to UGCAUGU
8,B8,0.0348 KA relative to UGCAUGU
9,B9,0.0107 KA relative to UGCAUGU
10,B10,0.00521 KA relative to UGCAUGU
11,B11,0.0211 KA relative to UGCAUGU
12,B12,0.00851 KA relative to UGCAUGU
13,B13,0.0111 KA relative to UGCAUGU
14,B14,0.0181 KA relative to UGCAUGU
15,B15,0.00472 KA relative to UGCAUGU
16,B16,0.00633 KA relative to UGCAUGU
17,B17,0.00975 KA relative to UGCAUGU
18,B18,0.00424 KA relative to UGCAUGU
19,B19,0.00265 KA relative to UGCAUGU
20,B20,0.00589 KA relative to UGCAUGU
